Results on 153 variants are retold here after a collection of fitness landscapes (doi:10.1126/science.1257360).

The list shows a part of the results.

The labels stand for the following.
B1: PhoQ; a variant is named by its letters at X, in order, P23837 (parent)
chain: MKKLLRLFFPLSLRVRFLLATAAVVLVLSLAYGMVALIGYSVSFDKTTFRLLRGESNLFYTLAKWENNKLHVELPENIDKQSPTMTLIYDENGQLLWAQRDVPWLMKMIQPDWLKSNGFHEIEADVNDTSLLLSGDHSIQQQLQEVREDDDDAEMTHSVAVNVYPATSRMPKLTIVVVDTIPVELKSSYMVWSWFIYVLSANLLLVIPLLWVAAWWSLRPIEALAKEVRELEEHNRELLNPATTRELTSLVRNLNRLLKSERERYDKYRTTLTDLTHSLKTPLXXLQXXLRSLRSEKMSVSDAEPVMLEQISRISQQIGYYLHRASMRGGTLLSRELHPVAPLLDNLTSALNKVYQRKGVNISLDISPEISFVGEQNDFVEVMGNVLDNACKYCLEFVEISARQTDEHLYIVVEDDGPGIPLSKREVIFDRGQRVDTLRPGQGVGLAVAREITEQYEGKIVAGESMLGGARMEVIFGRQHSAPKDE

The variants in this experiment derive from B1. The experiment in a line: enrichment ratio after two sorts for PhoP signalling (ratio (wild type AVST 3.29)); higher = more functional. The conditions noted are these: with PhoP (E. coli).
In the case of KLDG, the enrichment ratio was not above 0.25.
Consider IILF, for which the enrichment ratio is not above 0.25.
The same measure for FADQ: not above 0.25.
The value for GQCM was 1.51.
As to ASCI, the enrichment ratio stood at 19.9.
In the case of PAGS, the enrichment ratio was not above 0.25.
The value for KCVE was not above 0.25; that for LGEF was not above 0.25.
For GRLH, the enrichment ratio is not above 0.25.
As for FNPW, the enrichment ratio is not above 0.25.
The same measure for TLST: 7.45; for DIAM: not above 0.25; for WYAP: not above 0.25.
Turning to YDHL, the enrichment ratio was not above 0.25.
The same measure for SRES: not above 0.25.
The same measure for GKLM: 12.5; for LLRI: not above 0.25.
The value for IRTY was not above 0.25; that for YWEY was not above 0.25.
As for THVY, the enrichment ratio was 0.941.
As for SFYQ, the enrichment ratio is not above 0.25.
The value for FSGV was not above 0.25.
The value for ELKW was not above 0.25; that for QNWD was not above 0.25; that for MCIP was not above 0.25.
With VLWM, the enrichment ratio is not above 0.25.
The value for YCRS was not above 0.25; that for HQSS was not above 0.25; that for HSCG was not above 0.25.
Consider MLCG, for which the enrichment ratio is not above 0.25.
With VYCM, the enrichment ratio was not above 0.25.
PNCY: the enrichment ratio is not above 0.25.
The value for GYLK was not above 0.25; that for YQPR was not above 0.25.
The value for MWDI was not above 0.25; that for TYSH was 1.78.
The same measure for PKGR: not above 0.25.
Take KTPN: the enrichment ratio was not above 0.25.
On to QENC, for which the enrichment ratio is not above 0.25.
As for TNCF, the enrichment ratio is not above 0.25.
Consider SYPS, for which the enrichment ratio was not above 0.25.
The same measure for YGIR: not above 0.25.
The same measure for REYS: not above 0.25; for AHFA: not above 0.25; for RWST: not above 0.25.
The same measure for PDCG: not above 0.25.
Take INQI: the enrichment ratio is not above 0.25.
As to EFRE, the enrichment ratio is not above 0.25.
Regarding VGTQ, the enrichment ratio was not above 0.25.
Turning to LGIQ, the enrichment ratio was not above 0.25.
The value for AHIR was not above 0.25; that for REWH was not above 0.25.
The value for DFKQ was not above 0.25.
The same measure for VQGP: not above 0.25; for HWQT: not above 0.25; for VYFN: not above 0.25.
Regarding VRTT, the enrichment ratio was not above 0.25.
Take LKYM: the enrichment ratio is not above 0.25.
The same measure for SKTS: 3.33; for YGYI: not above 0.25; for TTWC: 1.31.
IFLQ: the enrichment ratio is not above 0.25.
On to ISHY, for which the enrichment ratio is not above 0.25.
In the case of AVRS, the enrichment ratio was not above 0.25.
The value for FVHQ was not above 0.25; that for NVPN was not above 0.25; that for AAGR was not above 0.25.
The same measure for NYDG: not above 0.25; for FAPC: not above 0.25.
Take YAGL: the enrichment ratio is not above 0.25.
The same measure for IMQF: not above 0.25; for DPTK: not above 0.25.
As to MYGP, the enrichment ratio is not above 0.25.
The same measure for NHQM: not above 0.25.
Regarding LRPR, the enrichment ratio was not above 0.25.
The same measure for VWSM: not above 0.25.
Regarding VCTV, the enrichment ratio came to 1.45.
The value for ALAC was 0.412; that for DHDD was not above 0.25.
The same measure for MMID: not above 0.25.
The value for GPVV was not above 0.25.
In the case of MWVL, the enrichment ratio is not above 0.25.
The value for AIYA was 0.272; that for TKRH was not above 0.25; that for CRKS was not above 0.25.
The value for LKMI was not above 0.25; that for EFDF was not above 0.25; that for QHPI was not above 0.25.
The same measure for SHQL: not above 0.25.
Turning to GIIC, the enrichment ratio amounted to 0.274.
For IYEN, the enrichment ratio is not above 0.25.
The value for LPCL was not above 0.25.
In the case of MAYQ, the enrichment ratio was 9.57.
The value for RDYR was not above 0.25.
The same measure for IYME: not above 0.25; for PHDA: not above 0.25.
The same measure for YKWT: not above 0.25.
Consider IHDS, for which the enrichment ratio is not above 0.25.
The same measure for FSIP: not above 0.25; for GMLK: not above 0.25.
The value for MVPI was not above 0.25; that for NWPN was not above 0.25; that for TKVC was 5.4.
The same measure for MTYG: 6.7; for MHKE: not above 0.25.
Regarding PQRA, the enrichment ratio was not above 0.25.
The value for SHRY was not above 0.25.
In the case of KNGF, the enrichment ratio is not above 0.25.
Turning to QAAY, the enrichment ratio is not above 0.25.
The same measure for IKWQ: not above 0.25; for GFWE: not above 0.25.
The same measure for SLFE: not above 0.25.
Regarding KEFN, the enrichment ratio is not above 0.25.
The same measure for HHYI: not above 0.25.
As to VRFQ, the enrichment ratio is not above 0.25.
For GEKY, the enrichment ratio was not above 0.25.
For MLYQ, the enrichment ratio came to 18.8.
The value for KFSG was not above 0.25; that for AEHA was not above 0.25; that for PHMK was not above 0.25.
As for KFSP, the enrichment ratio was not above 0.25.
Consider IPSC, for which the enrichment ratio was not above 0.25.
With FTLM, the enrichment ratio amounted to 8.49.
With HPRK, the enrichment ratio was not above 0.25.
The value for RGDF was not above 0.25; that for MKSG was not above 0.25.
In the case of ITWA, the enrichment ratio was not above 0.25.
As to RGMQ, the enrichment ratio is not above 0.25.
As for YSKP, the enrichment ratio was not above 0.25.
For the variant TLTW, the enrichment ratio stood at 1.34.
For the variant STAC, the enrichment ratio stood at 4.33.
Turning to NQYQ, the enrichment ratio was not above 0.25.
Take PGPF: the enrichment ratio is not above 0.25.
The value for PRCC was not above 0.25; that for QHLP was not above 0.25; that for LDGS was not above 0.25.
The same measure for LDKG: not above 0.25; for SPMK: not above 0.25; for LGNT: not above 0.25.
In the case of NEPF, the enrichment ratio was not above 0.25.
The value for NQIF was not above 0.25.
Turning to TTFV, the enrichment ratio turned out to be 1.16.
Regarding VADI, the enrichment ratio is not above 0.25.
Take WMCP: the enrichment ratio was not above 0.25.
The same measure for VEFC: not above 0.25.
The same measure for WSID: not above 0.25.
Take SWHE: the enrichment ratio was not above 0.25.
The same measure for AVVT: 0.37.
The same measure for PDTM: not above 0.25.
For the variant SGNM, the enrichment ratio was 6.15.
The value for MWNI was not above 0.25; that for IEPE was not above 0.25; that for QIRW was not above 0.25.
